# Measurements reported in patent US11161864B2, “Sting agonists” (Venenum Biodesign, LLC, priority 2018, dated 2021).
# Read-outs that look alike come from different tables or passages of the source.
# Legend:
# [1] = test system: STING pathway, RAW-Dual Reporter cell line; test: cells
# [2] = target: HAQ STING protein, THP1 Dual (HAQ) human cells (Homo sapiens (Human), UniProt Q86WV6, G230A/H232R/R293Q/R71H); test: cell-based; details: for EC50: Human HAQ Agonist EC50, 5 hrs; for Emax: THP1-Dual, 5 h
# [3] = target: wildtype (WT) STING protein, THP1 Dual (WT) human cells (Homo sapiens (Human), UniProt Q86WV6, H232R); test: cell-based; details: for EC50: Human WT Agonist EC50, 5 hrs; for Emax: THP1-Dual, 5 h
# [4] = read-out: Murine Agonist EC50, 5 hrs
# [5] = Mus musculus, 5 h, read-out: Murine Agonist EC50, 5 hrs
# [6] = Mus musculus, 5 h, read-out: Murine Agonist Efficacy, 5 hrs
# [7] = read-out: Human HAQ Agonist Efficacy, 5 hrs
# [8] = read-out: Human WT Agonist Efficacy, 5 hrs
# [9] = Mus musculus, 5 h, read-out: Murine Agonist EC50
# [10] = Mus musculus, 5 h, read-out: Murine Agonist Efficacy
# [11] = read-out: Human HAQ Agonist Efficacy
# [12] = read-out: Human WT Agonist Efficacy
# wildtype (WT) STING protein, THP1 Dual (WT) human cells, sequence (Q86WV6 whole entry H232R): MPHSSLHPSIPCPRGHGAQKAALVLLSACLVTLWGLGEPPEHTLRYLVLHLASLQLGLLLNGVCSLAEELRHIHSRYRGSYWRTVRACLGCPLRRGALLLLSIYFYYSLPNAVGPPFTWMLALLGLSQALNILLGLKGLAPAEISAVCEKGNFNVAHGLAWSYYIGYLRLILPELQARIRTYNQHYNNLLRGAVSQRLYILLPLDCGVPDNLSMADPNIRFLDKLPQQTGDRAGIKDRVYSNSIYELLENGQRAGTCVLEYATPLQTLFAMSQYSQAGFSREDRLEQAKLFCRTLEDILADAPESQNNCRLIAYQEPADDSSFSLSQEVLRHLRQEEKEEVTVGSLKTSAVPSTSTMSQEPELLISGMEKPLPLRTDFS
# HAQ STING protein, THP1 Dual (HAQ) human cells, sequence (Q86WV6 whole entry R71H/G230A/H232R/R293Q): as the sequence (Q86WV6 whole entry H232R) above, with R71H, G230A, R293Q counted along it
"EC50 [1, 4] [µM]","Emax [2, 7] [%]","Emax [3, 8] [%]",Compound,EC50 [2] [µM],EC50 [3] [µM],"EC50 [1, 5] [µM]","Emax [1, 6] [%]","EC50 [1, 9] [µM]","Emax [1, 10] [%]","Emax [2, 11] [%]","Emax [3, 12] [%]"
100 to 999,,,"Nc1nc2c(ncn2[C@@H]2O[C@@H]3COP(=O)(S)OCCn4c(nc5cncnc54)COP(=O)(S)O[C@@H]2[C@H]3F)c(=O)[nH]1 (single isomer, unassigned) [Example 25B]",100 to 999,100 to 999,,,,,,
10 to 99.9,,,"Nc1nc2c(ncn2[C@@H]2O[C@@H]3COP(=O)(S)OCCn4c(nc5cncnc54)COP(=O)(S)O[C@@H]2[C@H]3F)c(=O)[nH]1 (single isomer, unassigned) [Example 25C]",< 10,100 to 999,,,,,,
,,,"N#Cc1cnc2c(c1)nc1n2CCOP(=O)(S)OC[C@H]2O[C@@H](n3cnc4c(=O)[nH]c(N)nc43)[C@H](OP(=O)(S)OC1)[C@@H]2F (single isomer, unassigned) [Example 38A]",,,,,< 10,> 100,> 100,< 100
< 10,< 100,> 100,"Nc1nc2c(ncn2[C@@H]2O[C@@H]3COP(=O)(S)OCCn4c(nc5cncnc54)COP(=O)(S)O[C@@H]2[C@H]3F)c(=O)[nH]1 (single isomer, unassigned) [Example 25D]",< 10,< 10,,> 100,,,,
,,,"Nc1nc2c(ncn2[C@@H]2O[C@@H]3COP(=O)(S)OCCn4c(nc5c(N)ncnc54)COP(=O)(S)O[C@@H]2[C@@H]3F)c(=O)[nH]1 (single isomer, unassigned) [Example 7A]",< 10,100 to 999,< 10,,,,,
,< 100,< 100,"Nc1nc2c(ncn2[C@@H]2O[C@@H]3COP(=O)(S)OCC(F)(F)Cn4c(nc5cncnc54)COP(=O)(S)O[C@@H]2[C@@H]3F)c(=O)[nH]1 (stereo partly drawn) [Example 19A, (1S,22R,24R,25R)-24-(2-Amino-6-oxo-6,9-dihydro-1H-purin-9-yl)-16,16,25-trifluoro-3,19-disulfanyl-2,4,18,20,23-pentaoxa-7,10,12,14-tetraaza-3lambda5,19lambda5-diphosphatetracyclo[20.2.1.06,14.08,13]pentacosa-6,8,10,12-tetraene-3,19-dione]",,,,< 100,,,,
,,,"NC(=O)c1cnc2c(c1)nc1n2CCOP(=O)(S)OC[C@H]2O[C@@H](n3cnc4c(=O)[nH]c(N)nc43)[C@H](OP(=O)(S)OC1)[C@@H]2F (stereo partly drawn) [Example 37A, (1S,21R,23R,24R)-23-(2-Amino-6-oxo-6,9-dihydro-1H-purin-9-yl)-24-fluoro-3,18-dioxo-3,18-disulfanyl-2,4,17,19,22-pentaoxa-7,12,14-triaza-3lambda,5,18lambda5-diphosphater]",< 10,< 10,,,< 10,> 100,> 100,< 100
,< 100,< 100,"Nc1nc2c(ncn2[C@@H]2O[C@@H]3COP(=O)(O)OCCn4c(nc5cncnc54)COP(=O)(S)O[C@@H]2[C@@H]3F)c(=O)[nH]1 (stereo partly drawn) [Example 5A, (1S,21R,23R,24R)-23-(2-Amino-6-oxo-6,9-dihydro-1H-purin-9-yl)-24-fluoro-18-hydroxy-3-sulfanyl-2,4,17,19,22-pentaoxa-7,10,12,14-tetraaza-3lambda5,18lambda5-diphosphatetracyclo[19.2.1.06,14.08,13]tetracosa-6,8(13),9,11-tetraene-3,18-dione]",,,,> 100,,,,
,< 100,< 100,"Nc1nc2c(ncn2[C@@H]2O[C@@H]3COP(=O)(S)OCCn4c(nc5cnc(C6CC6)nc54)COP(=O)(S)O[C@@H]2[C@@H]3F)c(=O)[nH]1 (stereo partly drawn) [Example 12D, (1S,21R,23R,24R)-23-(2-Amino-6-oxo-6,9-dihydro-1H-purin-9-yl)-11-cyclopropyl-24-fluoro-3,18-disulfanyl-2,4,17,19,22-pentaoxa-7,10,12,14-tetraaza-3lambda5,18lambda5-diphosphatetracyclo[19.2.1.06,14.08,13]tetracosa-6,8,10,12-tetraene-3,18-dione]",,,,> 100,,,,
,> 100,< 100,"Nc1nc2c(nc3n2CCOP(=O)(S)OC[C@H]2O[C@@H](n4cnc5c(N)ncnc54)[C@H](OP(=O)(S)OC3)[C@@H]2F)c(=O)[nH]1 (stereo partly drawn) [Example 23B, (1S,21R,23R,24R)-11-Amino-23-(6-amino-9H-purin-9-yl)-24-fluoro-3,18-disulfanyl-2,4,17,19,22-pentaoxa-7,10,12,14-tetraaza-3lambda5,18lambda5-diphosphatetracyclo[19.2.1.06,14.08,13]tetracosa-6,8(13),11-triene-3,9,18-trione]",,,10 to 99.9,< 100,,,,
100 to 999,< 100,< 100,"Nc1nc2c(ncn2[C@@H]2O[C@@H]3COP(=O)(S)OCCn4nc(-c5ccncc5)nc4COP(=O)(S)O[C@@H]2[C@@H]3F)c(=O)[nH]1 (single isomer, unassigned) [Example 34B]",,,,< 100,,,,

Compound,"EC50 [1, 4] [µM]","Emax [2, 7] [%]","Emax [3, 8] [%]",EC50 [2] [µM],EC50 [3] [µM],"EC50 [1, 5] [µM]","Emax [1, 6] [%]","EC50 [1, 9] [µM]","Emax [1, 10] [%]","Emax [2, 11] [%]","Emax [3, 12] [%]"
"Nc1nc2c(ncn2[C@@H]2O[C@@H]3COP(=O)(O)OCCn4c(nc5cncnc54)COP(=O)(O)O[C@@H]2[C@@H]3O)c(=O)[nH]1 [Example 10, (1R,21R,23R,24R)-23-(2-Amino-6-oxo-6,9-dihydro-1H-purin-9-yl)-3,18,24-trihydroxy-2,4,17,19,22-pentaoxa-7,10,12,14-tetraaza-3lambda5,18lambda5-diphosphatetracyclo[19.2.1.06,14.08,13]tetracosa-6,8,10,12-tetraene-3,18-dione]",,> 200,< 100,10 to 99.9,100 to 999,10 to 99.9,> 100,,,,
"Nc1nc2c(ncn2[C@@H]2O[C@@H]3COP(=O)(S)OCCn4c(nc5cncnc54)COP(=O)(S)O[C@@H]2C3(F)F)c(=O)[nH]1 (stereo partly drawn) [Example 36D, (1S,21R,23R)-23-(2-Amino-6-oxo-6,9-dihydro-1H-purin-9-yl)-24,24-difluoro-3,18-disulfanyl-2,4,17,19,22-pentaoxa-7,10,12,14-tetraaza-3lambda5,18lambda5-diphosphatetracyclo[19.2.1.06,14.08,13]tetracosa-6,8,10,12-tetraene-3,18-dione]",,> 100,< 100,< 10,10 to 99.9,< 10,< 100,,,,
"Nc1nc2c(ncn2[C@@H]2O[C@@H]3COP(=O)(S)OCCn4c(nc5cncnc54)COP(=O)(S)O[C@@H]2[C@@H]3F)c(=O)[nH]1 (single isomer, unassigned) [Example 1C]",,> 100,> 100,< 10,< 10,< 10,> 100,,,,
"Nc1nc2c(ncn2[C@@H]2O[C@@H]3COP(=O)(S)OCCn4c(nc5c(N)ncnc54)COP(=O)(S)O[C@@H]2[C@@H]3F)c(=O)[nH]1 (stereo partly drawn) [Example 7A, (1S,21R,23R,24R)-9-Amino-23-(2-ammo-6-oxo-6,9-dihydro-1H-purin-9-yl)-24-fluoro-3,18-disulfanyl-2,4,17,19,22-pentaoxa-7,10,12,14-tetraaza-3lambda5,18lambda5-diphosphatetracyclo[19.2.1.06,14.08,13]tetracosa-6,8(13),9,11-tetraene-3,18-dione]",,> 100,< 100,,,,> 100,,,,
"Nc1nc2ncn([C@@H]3O[C@@H]4COP(=O)(S)OCCn5c(nc6cc(Cl)cnc65)COP(=O)(S)O[C@@H]3[C@@H]4F)c2c(=O)[nH]1 (single isomer, unassigned) [Example 13B]",10 to 99.9,< 100,< 100,10 to 99.9,> 1000,,> 100,,,,
